Among the data in the antibiotic and cytotoxicity screens of Wong et al. (2023) are cytotoxicity call and growth inhibition call values, retold here.

Molecules are shown by their SMILES. The list shows a part of the results.

The test system of assay [1] is HSkMC (human skeletal muscle cells). Description: cytotoxicity call (relative viability < 0.9). The following applies: 10 µM.
The subject of assay [2] is HepG2. Description: cytotoxicity call (relative viability < 0.9). To be noted: 10 µM.
Assay [3] deals with S. aureus RN4220. Description: growth inhibition call (relative growth <= 0.2). The following applies: 50 µM.

Turning to `C1COC2(CN1)CNC2`, the cytotoxicity call in assay [1] and in assay [2] was “inactive” in each case. For the same compound, the growth inhibition call in assay [3] was “inactive”.
As to `O=C(NCc1ccccn1)[C@]12CNC[C@H]1COC2`, the cytotoxicity call in assay [1] and in assay [2] was “inactive” each time. In addition, the growth inhibition call in assay [3] was “inactive”.
In the case of `Cl.Clc1ccc(C(OCCN2CCCCC2)c2ccccc2)cc1` (stereo not drawn), in assay [1], the cytotoxicity call is “inactive”. Moreover, the cytotoxicity call in assay [2] was “active”. In addition, the growth inhibition call in assay [3] was “inactive”.
In the case of `CN1CC(=O)N(c2cccnc2)C[C@]12CCNC2`, the cytotoxicity call in assay [1] and in assay [2] was “inactive” each time. The growth inhibition call in assay [3] was “inactive”.
Turning to `NC(=O)CS(=O)C(c1ccccc1)c1ccccc1` (stereo not drawn), the cytotoxicity call in assay [1] and in assay [2] was “inactive” each time. The growth inhibition call in assay [3] was “inactive”.
`COCC(=O)N1[C@@H]2c3ccc(C4=CCCC4)c(=O)n3C[C@H]1[C@H](CO)[C@H]2C(=O)OC`: the cytotoxicity call in assay [1] and in assay [2] was “inactive” each time. In assay [3], the growth inhibition call was “inactive”.
For the compound `NC1CC1c1ccccc1.O=S(=O)(O)O` (stereo not drawn), the cytotoxicity call in assay [1] and in assay [2] was “inactive” throughout. For the same compound, the growth inhibition call in assay [3] was “inactive”.
For `CC12CCC3C(CCC4CC(O)CCC43C)C1CCC2=O` (stereo not drawn), the cytotoxicity call in assay [1] and in assay [2] was “inactive” in each case. Moreover, in assay [3], the growth inhibition call was “inactive”.
For the compound `N=C1NC(=O)N2CC12` (stereo not drawn), the cytotoxicity call in assay [1] and in assay [2] was “inactive” throughout. Besides, in assay [3], the growth inhibition call was “inactive”.
Turning to `CC(C)(C)CC(=O)N1C[C@H]2C[C@@H]1CN2`, the cytotoxicity call in assay [1] and in assay [2] was “inactive” throughout. In addition, in assay [3], the growth inhibition call was “inactive”.
`CO[C@H]1C[C@H](O[C@H]2CC[C@]3(C=O)[C@H]4CC[C@]5(C)[C@@H](C6=CC(=O)OC6)CC[C@]5(O)[C@@H]4CC[C@]3(O)C2)O[C@H](C)[C@H]1O`: the cytotoxicity call in assay [1] and in assay [2] was “active” in each case. Moreover, the growth inhibition call in assay [3] was “inactive”.
In the case of `Cc1ccc(OC(=O)N(C)C[C@H]2OCc3ccccc3-c3c(n(C)c4ccccc34)C(=O)N([C@H](C)CO)C[C@@H]2C)cc1`, the cytotoxicity call in assay [1] and in assay [2] was “active” in each case. Also, the growth inhibition call in assay [3] is “inactive”.
On to `NCC1(c2c(F)cc(F)cc2F)CC1`, for which the cytotoxicity call in assay [1] and in assay [2] was “inactive” in each case. For the same compound, the growth inhibition call in assay [3] is “inactive”.
For the compound `CCC1CN2CCc3cc(OC)c(OC)cc3C2CC1CC1NCCc2cc(OC)c(OC)cc21.Cl.Cl` (stereo not drawn), the cytotoxicity call in assay [1] is “inactive”. Besides, in assay [2], the cytotoxicity call was “active”. The growth inhibition call in assay [3] is “inactive”.
Regarding `C[C@H]1CN([C@@H](C)CO)C(=O)CCCn2nncc2CO[C@H]1CN(C)C(=O)Oc1ccc2ccccc2c1`, the cytotoxicity call in assay [1] and in assay [2] was “inactive” throughout. For the same compound, the growth inhibition call in assay [3] was “inactive”.
Regarding `Cc1ccc(-c2nc3ccc(C)cn3c2CC(=O)N(C)C)cc1`, the cytotoxicity call in assay [1] and in assay [2] was “inactive” throughout. Moreover, the growth inhibition call in assay [3] is “inactive”.
For `C[C@H](CO)N1C[C@H](C)[C@@H](CN(C)C(=O)Oc2cccc3ccccc23)OCc2cn(nn2)CCCC1=O`, the cytotoxicity call in assay [1] and in assay [2] was “inactive” throughout. For the same compound, in assay [3], the growth inhibition call is “inactive”.
Regarding `CNC(Cc1c[nH]c2ccccc12)C(=O)O` (stereo not drawn), the cytotoxicity call in assay [1] and in assay [2] was “inactive” in each case. For the same compound, the growth inhibition call in assay [3] was “inactive”.
Take `Nc1ccc2c(c1)Cc1ccccc1-2`: the cytotoxicity call in assay [1] and in assay [2] was “inactive” throughout. Also, the growth inhibition call in assay [3] was “inactive”.
In the case of `CC(=O)OC[C@]12CCC(C)=C[C@H]1O[C@@H]1[C@H](O)[C@@H](OC(C)=O)[C@@]2(C)[C@]12CO2`, the cytotoxicity call in assay [1] and in assay [2] was “active” in each case. Further, the growth inhibition call in assay [3] was “inactive”.
`C=C(C)[C@H]1CN[C@H](C(=O)O)[C@H]1CC(=O)O`: the cytotoxicity call in assay [1] and in assay [2] was “inactive” each time. Also, the growth inhibition call in assay [3] is “inactive”.
Take `CC(=O)OC1CCC2(C)C(CCC3C2CCC2(C)C(C4=CC(=O)OC4)C(OC(C)=O)CC32O)C1` (stereo not drawn): the cytotoxicity call in assay [1] and in assay [2] was “active” in each case. The growth inhibition call in assay [3] is “inactive”.
On to `NC(=O)c1ccc(N)nc1`, for which the cytotoxicity call in assay [1] is “inactive”. Moreover, in assay [2], the cytotoxicity call is “active”. Besides, the growth inhibition call in assay [3] was “inactive”.
In the case of `CO[C@H]1[C@@H](O)[C@@H](O[C@H]2CC[C@]3(C=O)[C@@H]4[C@@H](CC[C@]3(O)C2)[C@@]2(O)CC[C@H](C3=CC(=O)OC3)[C@@]2(C)C[C@H]4OC(C)=O)O[C@@H](C)[C@@H]1OC(C)=O`, the cytotoxicity call in assay [1] and in assay [2] was “inactive” throughout. In addition, the growth inhibition call in assay [3] is “inactive”.
Turning to `CN1CCN(CC2CC2)C(=O)C12CCNCC2`, the cytotoxicity call in assay [1] and in assay [2] was “inactive” throughout. For the same compound, the growth inhibition call in assay [3] is “inactive”.
Regarding `CC12C=CC(=O)C=C1CCC1C2CCC2(C)C(=O)CCC12` (stereo not drawn), the cytotoxicity call in assay [1] and in assay [2] was “inactive” throughout. Moreover, the growth inhibition call in assay [3] is “inactive”.
As for `CC(=O)N[C@H]1C(=O)NC(=S)N(c2ccccc2)C1=O`, the cytotoxicity call in assay [1] and in assay [2] was “inactive” each time. For the same compound, the growth inhibition call in assay [3] is “inactive”.
Regarding `O=[N+]([O-])c1ccc2c3c(cccc13)CC2`, the cytotoxicity call in assay [1] and in assay [2] was “inactive” each time. For the same compound, the growth inhibition call in assay [3] is “inactive”.
`c1ccc2c(c1)[nH]c1cnccc12`: the cytotoxicity call in assay [1] and in assay [2] was “inactive” each time. In addition, the growth inhibition call in assay [3] is “inactive”.
Consider `Cc1cccc(C)c1NC1=NCCCS1`, for which the cytotoxicity call in assay [1] and in assay [2] was “inactive” in each case. The growth inhibition call in assay [3] is “inactive”.
Regarding `S=C1NCCN1`, the cytotoxicity call in assay [1] and in assay [2] was “inactive” throughout. Moreover, in assay [3], the growth inhibition call is “inactive”.
Take `C[C@@H]1CN([C@H](C)CO)C(=O)CCCn2cc(nn2)CO[C@@H]1CN(C)C(=O)Oc1ccc2ccccc2c1`: the cytotoxicity call in assay [1] and in assay [2] was “inactive” in each case. For the same compound, the growth inhibition call in assay [3] is “inactive”.
As to `Nc1nc(N)nc(NC2CC2)n1`, the cytotoxicity call in assay [1] and in assay [2] was “inactive” each time. Moreover, in assay [3], the growth inhibition call was “inactive”.
`N[C@@H](c1ccccc1)[C@H](O)c1ccccc1`: the cytotoxicity call in assay [1] and in assay [2] was “inactive” each time. Further, in assay [3], the growth inhibition call was “inactive”.
`COc1ccc(CCN)cc1OC`: the cytotoxicity call in assay [1] and in assay [2] was “inactive” throughout. For the same compound, in assay [3], the growth inhibition call was “inactive”.
With `CC=C1CC(C)C(O)(CO)C(=O)OCC2=CCN3CCC(OC1=O)C23` (stereo not drawn), the cytotoxicity call in assay [1] and in assay [2] was “inactive” each time. Further, the growth inhibition call in assay [3] is “inactive”.
For `NCC1(c2ccc(Cl)cc2)CC1`, the cytotoxicity call in assay [1] and in assay [2] was “inactive” in each case. Also, the growth inhibition call in assay [3] is “inactive”.
On to `NCCN1CCN(c2ccc(F)cc2)CC1`, for which the cytotoxicity call in assay [1] and in assay [2] was “inactive” in each case. The growth inhibition call in assay [3] is “inactive”.
For `N[C@H](CO)Cc1ccccc1`, the cytotoxicity call in assay [1] and in assay [2] was “inactive” throughout. In addition, the growth inhibition call in assay [3] is “inactive”.
For the compound `CC(=O)N[C@@H]1CCSC1=O`, the cytotoxicity call in assay [1] and in assay [2] was “inactive” in each case. For the same compound, in assay [3], the growth inhibition call was “inactive”.
Regarding `N#[N+]CC(=O)CC[C@H](N)C(=O)O`, the cytotoxicity call in assay [1] and in assay [2] was “inactive” throughout. Further, in assay [3], the growth inhibition call was “inactive”.
